# Measurements reported in the BET-seq Pho4 binding data (Le et al. 2018).
# The other results are listed elsewhere or left out. Values were computed here from the reads of four pooled replicates and scatter widely.
# Molecular target: T1, Pho4 (S. cerevisiae) (UniProt P07270)
# T1 sequence: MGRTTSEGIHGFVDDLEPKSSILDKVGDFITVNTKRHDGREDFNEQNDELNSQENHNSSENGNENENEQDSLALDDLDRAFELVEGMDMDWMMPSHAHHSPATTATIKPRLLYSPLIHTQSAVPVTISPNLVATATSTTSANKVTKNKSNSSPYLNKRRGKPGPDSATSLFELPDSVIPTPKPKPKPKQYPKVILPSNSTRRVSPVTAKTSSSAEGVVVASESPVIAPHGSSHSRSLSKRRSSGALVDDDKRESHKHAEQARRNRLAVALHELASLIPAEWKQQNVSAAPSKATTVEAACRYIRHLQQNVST
# Assay: relative binding free energy (BET-seq); higher = weaker binding
# Details: reference: library average
row,Sequence,relative binding free energy [kcal/mol]
1,TTGGACACGTGGGTCA,-0.05
2,CGAGTCACGTGTTTTT,0.19
3,TAAAGCACGTGATTTA,0.09
4,GTGTCCACGTGAGGCT,0.31
5,GTTCACACGTGAGTTA,0.31
6,GTGTTCACGTGTCGGT,0.3
7,TAGAGCACGTGTTGGT,-0.04
8,TGGGACACGTGAGATT,0.3
9,ATTTGCACGTGTGACT,0.21
10,AGGACCACGTGTAGTT,0.13
11,TTGGGCACGTGCCGGC,-0.17
12,GATGGCACGTGATGTT,0.07
13,TAAGGCACGTGTTCTT,0.01
14,AGGGACACGTGCTTTT,-0.01
15,GGATACACGTGAGTAG,0.33
16,AATTGCACGTGGGTGG,-0.11
17,TTGAGCACGTGTGTTG,0
18,CTCTACACGTGTTGGG,0.1
19,TTGTGCACGTGTTAGT,-0.04
20,AATGGCACGTGAAAGT,0.17
21,TTTACCACGTGGGTTG,-0.05
22,GAGTACACGTGGTGGT,0.11
23,TGGTACACGTGACTGG,0.15

row,Sequence,relative binding free energy [kcal/mol]
1,TAGTGCACGTGGTATC,-0.15
2,TTTTTCACGTGGTAAC,0.19
3,GGTGGCACGTGTTCAG,-0.05
4,CTATTCACGTGAGGTG,0.41
5,ATGTTCACGTGTCTGA,0.12
6,AATTTCACGTGTAATT,0.39
7,AGATGCACGTGCTTTG,-0.01
8,TATATCACGTGGAATT,0.13
9,AGGTGCACGTGCTGTA,-0.21
10,AATGGCACGTGAAGTA,0.04
11,GAAGTCACGTGGCTTG,0.15
12,ATGGGCACGTGTGCGG,-0.01
13,GGATACACGTGTTGTA,0.11
14,GTGTGCACGTGTCTAG,-0.02
15,TGGGACACGTGTTGAC,0.13
16,TTATGCACGTGATGAA,-0.02
17,TTTGGCACGTGTTGGC,-0.06
18,CACAGCACGTGGTGGG,-0.23
19,TATGTCACGTGAAGTG,0.3
20,TTGGGCACGTGTTTAT,-0.14
21,TTGGCCACGTGAAGGA,0.24
22,GTTTTCACGTGGCGCT,0.22
23,TGGCGCACGTGGGACG,-0.14

row,Sequence,relative binding free energy [kcal/mol]
1,CTGGACACGTGGATGT,0.03
2,GTTCTCACGTGGTATG,0.12
3,TACTTCACGTGGCGGG,0.13
4,TGTGGCACGTGAATTT,0.16
5,ATGTTCACGTGGCATA,0.05
6,TTGTGCACGTGGATAC,0
7,TTTTACACGTGTTACT,0.08
8,CGATGCACGTGGCTGG,-0.14
9,TTCTTCACGTGGTGAG,0.2
10,GAATACACGTGTGGGA,0.22
11,TAGGCCACGTGAGCGG,0.1
12,GTGTTCACGTGAGGGG,0.49
13,TTTTTCACGTGAGGAA,0.42
14,AAATGCACGTGGGTGA,-0.19
15,AACGGCACGTGTGTTT,-0.02
16,GGATGCACGTGGTTGG,-0.06
17,TATGTCACGTGCTAGG,0.14
18,TTGATCACGTGGAATA,0.09
19,AGTGCCACGTGGGTTT,-0.12
20,ATAGACACGTGTGGTT,0.12
21,TTGAGCACGTGGGAGC,-0.2
22,GCTTTCACGTGTGGGT,0.16
23,TGGGGCACGTGTAATA,-0.05

row,Sequence,relative binding free energy [kcal/mol]
1,GTTTGCACGTGTTGTT,0.17
2,TGGTTCACGTGACTTG,0.22
3,CTGGTCACGTGTTGTT,0.1
4,AGGGCCACGTGGGTCG,-0.12
5,GAATGCACGTGGAGGG,0.05
6,TAGTCCACGTGGGGGG,-0.13
7,TCGCGCACGTGGATGT,-0.12
8,CTGGACACGTGCGGTT,0.09
9,TGGGACACGTGTGGGT,0.12
10,TGGGTCACGTGCGGGA,0.08
11,TAGGGCACGTGCGTGT,-0.2
12,GTGTGCACGTGCTGCT,0.04
13,AATTCCACGTGTAGTT,0.11
14,AGGGTCACGTGCTATT,0
15,ATTCGCACGTGAGGAT,0.17
16,TTTAGCACGTGGGCGC,-0.25
17,TGATTCACGTGTGTGT,0.31
18,AATCTCACGTGGTGGA,0.25
19,TTGACCACGTGTGTGA,-0.08
20,GTTATCACGTGTAGTG,0.19
21,TGTGTCACGTGAGTGA,0.19
22,CGTGCCACGTGTTGTA,-0.04
23,AGTTGCACGTGGGCTT,-0.25

row,Sequence,relative binding free energy [kcal/mol]
1,CGGGGCACGTGGCGAG,-0.2
2,GGTGCCACGTGTTGCG,-0.1
3,CTTTACACGTGTATGG,0.2
4,CGGGTCACGTGTGAGT,0.22
5,TGGGACACGTGGTCAG,-0.15
6,AGATGCACGTGTAATG,0.08
7,GGAGTCACGTGCTGTG,0.1
8,GTTCACACGTGGAGGT,0.19
9,CGTCTCACGTGTTGGG,0.18
10,GGGCGCACGTGTTTCG,-0.1
11,GGTCTCACGTGTGATG,0.25
12,ATACGCACGTGTTAGG,-0.16
13,TCCTGCACGTGGAGTT,0.05
14,AGTGGCACGTGTAAGG,0.01
15,ATGGACACGTGGCTAG,0.03
16,GCTTGCACGTGTTGCG,0.07
17,AGGAACACGTGGTGGC,-0.07
18,CTATACACGTGTGGTG,-0.05
19,GCGGACACGTGGTGGG,0.05
20,TTTACCACGTGGGTTT,-0.12
21,TTTGTCACGTGCTTTC,0.05
22,TAATTCACGTGGAGGT,0.28
23,AGGTTCACGTGTGCCT,0.22
